# Measurements from PubChem BioAssay AID588342 (National Center for Advancing Translational Sciences (NCATS), 2011).
# The campaign covered roughly 360,000 compounds. About 25,000 (6.9%) were called active. Inconclusive results, whose numbers are uncertain, are shown with a selection of clear calls. The call rests on the fitted dose curve; in most records, active means well fitted inhibition curve with a large enough effect; inconclusive means small, poorly fitted or top-dose-only effect; inactive means flat fitted curve, though single readings scatter. A potency beside an inconclusive call is a rough fit, not a confirmed value.
# Target: Luciferin 4-monooxygenase (Photinus pyralis) (UniProt P08659)
# Assay: qHTS profiling assay for firefly luciferase inhibitor/activator using purifed enzyme and Km concentrations of substrates (counterscreen for miR-21 project); further: nearly all actives have a fitted effect of over 55% in size
# Settings: purified FLuc, luminescence inhibition; series mostly up to 57.5 µM
# Summary of the method: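 Biochemical qHTS of compounds, final roughly 60 µM downward over six points, against 10 nM purified firefly luciferase using Km concentrations of substrates (10 uM D-luciferin, 10 uM ATP) in Tris acetate pH 7.5 buffer; luminescence output.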
# Potency means the concentration at half of the fitted maximal effect; tags describe the fitted curve by direction and shape.
# UniProt P08659, sequence (P08659 whole entry, looked up): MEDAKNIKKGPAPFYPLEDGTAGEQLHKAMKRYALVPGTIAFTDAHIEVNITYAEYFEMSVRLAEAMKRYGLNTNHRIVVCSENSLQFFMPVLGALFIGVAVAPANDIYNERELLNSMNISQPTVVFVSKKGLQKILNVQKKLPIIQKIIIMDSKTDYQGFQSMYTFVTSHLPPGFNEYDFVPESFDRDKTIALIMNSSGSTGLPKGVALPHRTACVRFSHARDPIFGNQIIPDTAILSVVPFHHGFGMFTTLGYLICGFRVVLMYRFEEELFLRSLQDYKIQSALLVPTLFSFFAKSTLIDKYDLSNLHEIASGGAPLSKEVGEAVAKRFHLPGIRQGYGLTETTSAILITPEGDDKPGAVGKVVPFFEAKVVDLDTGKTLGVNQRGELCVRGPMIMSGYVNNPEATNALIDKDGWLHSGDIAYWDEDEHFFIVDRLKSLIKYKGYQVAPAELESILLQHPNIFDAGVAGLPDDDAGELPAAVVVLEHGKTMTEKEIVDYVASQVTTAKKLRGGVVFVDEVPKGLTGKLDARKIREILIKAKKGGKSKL
row,SMILES,Potency
1,Oc1ccc(-c2nnc(Nc3ccccc3)c3ccccc23)cc1,"inconclusive: 19 µM [inhibitor, partial curve, poor fit]"
2,CC1=CC(=C(C#N)c2nc3ccccc3s2)C=C(C)N1Cc1ccco1,active: 4.78 µM
3,COc1cccc(-c2cc(C(F)(F)F)nc(-n3nc(C)c(Br)c3C)n2)c1,inactive
4,O=C(Cc1ccc(Cl)cc1)Nc1ccccn1,inactive
5,COc1cccc(OCc2nnc(-c3cccs3)o2)c1,"inconclusive: 26.9 µM [inhibitor, partial curve, poor fit]"
6,c1cc2c(cc1Nc1nc(-c3ccc4c(c3)OCO4)cs1)OCCO2,active: 4.26 µM
7,COc1ccc(C(=O)Nc2ccnc(-c3cccnc3)n2)cc1,"inconclusive: 15.1 µM [inhibitor, partial curve, poor fit]"
8,CCOC(=O)c1ccc(N=C2C(=S)N(c3ccc(C(=O)OCC)cc3)C(=N)N2/N=C/c2ccccc2)cc1,"inconclusive: 37.9 µM [inhibitor, single point]"
9,COC(=O)/C=C1\S/C(=N/N=C/c2ccco2)NC1=O,"inconclusive: 23.9 µM [inhibitor, partial curve]"
10,COC(=O)c1c(NC(=O)c2ccc(S(=O)(=O)N3CCCCC3)cc2)sc2c1CCN(C)C2,inactive
11,COc1cccc(N2CCN(c3ncccn3)CC2)c1,"inconclusive: 16.9 µM [inhibitor, partial curve]"
12,O=C(COC(=O)c1cc(Cl)nc2ccccc12)c1ccc(Cl)cc1,"inconclusive: 16.9 µM [inhibitor, partial curve, poor fit]"
13,Cc1nn(Cc2ccccc2Cl)c(Cl)c1C(=O)NCCc1ccccc1,active: 3.79 µM
14,COc1ccc(NC(=O)c2cccc(S(=O)(=O)N3CCc4ccccc43)c2)cn1,inactive
15,O=C(N/N=C/c1ccco1)c1cccc(NC(=O)c2cccc(Cl)c2)c1,"inconclusive: 21.3 µM [inhibitor, single point]"
16,O=C(NC12CC3CC(CC(C3)C1)C2)c1ccc(-c2ccccc2Cl)o1,active: 1.9 µM
17,O=C(CN1C(=O)c2ccccc2S1(=O)=O)NCCSCc1ccccc1Cl,"inconclusive: 33.8 µM [inhibitor, partial curve, poor fit]"
18,CCOc1ccc(C(=O)NNC(=O)c2cc(S(=O)(=O)N3CCOCC3)ccc2Cl)cc1,"inconclusive: 13.5 µM [inhibitor, partial curve]"
19,Cc1ccc(-n2c(SCC(=O)N3CCOCC3)nnc2-c2cccnc2)cc1,"inconclusive: 37.9 µM [inhibitor, single point]"
20,Cc1cccc(-c2nc3sc(C)cc3c(=O)o2)c1,active: 2.69 µM
21,O=C(O)CNS(=O)(=O)c1ccc(C2CCCCC2)cc1,"inconclusive: 33.8 µM [inhibitor, partial curve, poor fit]"
22,Cc1cc(-c2ccc(NC(=O)[C@@H]3CCCC[C@@H]3C(=O)O)c(C)c2)ccc1NC(=O)[C@@H]1CCCC[C@@H]1C(=O)O,"inconclusive: 42.6 µM [inhibitor, partial curve, poor fit]"
23,Cc1ccc(N2CC(c3nnc(Cc4ccc(F)cc4Cl)o3)CC2=O)cc1 (stereo unspecified),inactive

row,SMILES,Potency
1,COc1ccc(C(=O)NCCc2nnc(SCC(=O)Nc3ccccc3F)n2C)cc1,"inconclusive: 37.9 µM [inhibitor, single point]"
2,CCOc1ccc2nc(N3CCCCCC3)sc2c1,active: 1.07 µM
3,COc1ccc(NC(=O)Cc2nnc(SCC(=O)NC3CCCCC3)n2C)cc1,"inconclusive: 37.9 µM [inhibitor, partial curve, poor fit]"
4,CCn1c(SCC(=O)c2cccs2)nnc1-c1cccs1,"inconclusive: 23.9 µM [inhibitor, partial curve]"
5,O=C(/C=C/c1ccc2ccccc2c1)c1ccoc1,active: 0.536 µM
6,Cc1ccc(C)n1-c1nccc(-c2cccs2)n1,inactive
7,Cn1cccc1C(=O)OCC(=O)NC(=O)NC1CCCCC1,inactive
8,CNc1nc(C)c(C(C)(C)C)s1,"inconclusive: 37.9 µM [inhibitor, partial curve, poor fit]"
9,Cc1ccc(NC(=O)N2CCCc3ccccc32)cc1C,active: 21.3 µM
10,CCN(CC)S(=O)(=O)c1cccc(C(=O)N/N=C/c2ccc(OC)c(O)c2)c1,"inconclusive: 30.1 µM [inhibitor, partial curve, poor fit]"
11,CCCOc1ccc(C2C(C(=O)c3ccco3)=C(O)C(=O)N2CCCn2ccnc2)cc1 (stereo unspecified),"inconclusive: 16.9 µM [inhibitor, partial curve, poor fit]"
12,CC(=O)Nc1c(O)nc(SCC(=O)Nc2ccc(C(C)=O)cc2)[nH]c1=O,"inconclusive: 9.53 µM [inhibitor, partial curve]"
13,Nc1cccc(Nc2ncnc3ccccc23)c1,"inconclusive: 23.9 µM [inhibitor, single point]"
14,CCN(CC)C(=O)Oc1ccc2c(=O)c(-c3ccccc3)coc2c1,active: 6.01 µM
15,COc1ccc(C(=O)Nc2ccc(Cl)c(Cl)c2)c(OC)n1,active: 0.953 µM
16,CCOC(=O)CSc1nc(-c2ccc(OC)cc2)ns1,active: 23.9 µM
17,Cc1ccc(-n2c(SCC(=O)N3CCC(C(=O)O)CC3)nc3ccccc3c2=O)cc1C,active: 13.5 µM
18,C#CCOc1c(/C=C\c2nc(O)c([N+](=O)[O-])c(=O)[nH]2)cc(Br)cc1OC,"inconclusive: 30.1 µM [inhibitor, single point]"
19,O=C(NC1CCCC1)c1cc2ccccc2o1,"inconclusive: 21.3 µM [inhibitor, single point]"
20,Cc1ccc(NC(=O)N2CCCN(C(=O)OC(C)(C)C)CC2)cc1Cl,inactive
21,Nc1ccc(C(=O)N/N=C/c2sc(N3CCOCC3)nc2-c2ccccc2)cc1,"inconclusive: 26.9 µM [inhibitor, single point]"
22,CCN1C(=C2C(=O)c3ccccc3C2=O)C=Cc2ccccc21,"inconclusive: 30.1 µM [inhibitor, partial curve, poor fit]"
23,Cc1cccc(OCCn2c(S(=O)(=O)O)nc3ccccc32)c1,"inconclusive: 26.9 µM [inhibitor, partial curve, poor fit]"
